From the RNAGym collection of RNA variant scans (doi:10.7554/elife.90254)
Read counts are not given, so values of variants with three or more changes are uncertain.

B1: LINE1-full (parent)
chain: UACGUAGGUGGUUUUCCCCUGAUAGUGCUAAGGGGGCCUGGAAGUUUGGACUGGGCAGAGCUCAACACAGCGUGGCAAAGUGGCUGUGGCUAGACUGCCUCUCUGGAUUCCUCGUCACUCAGCAGGGCAUCUCUGAGAGAAAUGCC

Variants of: B1
Experiment: self-cleavage, relative activity (ratio to wild type); higher = more cleavage; in vitro, sequencing; the parent is a self-cleaving ribozyme

| Variant | self-cleavage |
| --- | --- |
| C37U U39A U73C A140G | 1.47 |
| U12C G27A U104C A138G | 1.63 |
| U1C G34C U108C C111U A121G U134C | 1.44 |
| A67G A77U A141G | 0.42 |
| U46C A69G A94G U104A C131A | 0 |
| A2U U39A G75A A117U | 0.36 |
| A79G U102A U104A | 1.16 |
| U12C U26A A59G | 0.33 |
| A64G A117G U130C A136G | 0 |
| U20C C28U A57G A117G C118U A124U A136U | 0.92 |
| A59U U96A G125A | 0.03 |
| U9C A30G U132C | 1.35 |
| C19A A67U U73A G74A G93U U100C | 0.04 |
| A57U U62C A124G | 0.08 |
| U100C U108C G137A | 1.98 |
| A31G G40A U52C | 1.63 |
| U12C A79G U119C | 0.38 |
| G32A U47A G55A U96G C116U U134C A142G | 0.01 |
| U12C U45A C84G C98G | 0.07 |
| U26C A30G C63U A140G | 0.41 |
| A30U G36A A140G | 0.31 |
| U46A A57U A78G | 0.08 |
| U9A U14C U73C U143A | 2.45 |
| A50U C90U A138U | 0.04 |
| A94U G114U A129G | 0.32 |

| Variant | self-cleavage |
| --- | --- |
| A6G G54U A129G | 0.73 |
| G35U A64G U85C | 0.13 |
| U9A U104A A140G | 0.22 |
| A30G A57G G82A | 1.34 |
| C51U A65U A77G U85C | 0.19 |
| U9C A65G A79U | 0.34 |
| U13C G125U U130C G137A | 0 |
| U1A U20G U45C U96A | 0.16 |
| U13C U91C A138G | 1.67 |
| A24U G75A U112C | 1.19 |
| U14C C37U U109A | 0.51 |
| A67G A117G A142G | 0 |
| A6U A57G A92U | 0 |
| U62G U87A C95U A140G | 0.06 |
| A6C U45C A121U | 1.01 |
| A2G G35U U39A A121G | 0.68 |
| U13C G32A A69U U109C G126A | 0.09 |
| A77G A79U U96C G122A | 0 |
| U39A U62C A141G | 0.01 |
| G35A U47C U73A A78G | 0.18 |
| U13C U46C A107G | 2.3 |
| U13C U14C U102C | 1.29 |
| A31U G53A U96G U143A | 0.06 |
| C3A U26C G35A A77U A107G | 1.08 |
| U5C A6G U20A A67G | 1.08 |

| Variant | self-cleavage |
| --- | --- |
| A92G U100G C118U | 0 |
| U15A G36C A117G A129G | 1.91 |
| A43U G74A U143A | 0.75 |
| U1C A42U A57G U87A | 0.04 |
| U15C A65U C120U | 0.22 |
| C3U A31G U104C | 0.86 |
| G35C U39A U91A C131G A140G | 0.57 |
| U5C A43G C101U | 1.4 |
| C19U U85C U104A | 0.15 |
| U13C A92G A121U | 0.2 |
| A50G A69G C90U U112C | 0.03 |
| U14C U47C U132C | 0.77 |
| C3U U73A A78G A129U | 0.29 |
| G27A A43G U81C | 0.9 |
| A69G U102C A129G | 2.3 |
| U14C U26G A42G | 0.67 |
| C37U A50G U134C | 0.7 |
| U5C A30G U85A | 0.16 |
| U87C G126U U130A | 0.31 |
| U1C A2G C17A A117C A141G | 0.99 |
| U85A A92G U108C U143C | 0 |
| A31G U108A U112C | 1.46 |
| U15C A92G U112C | 0.22 |
| A69U G72A A78G | 0.06 |
| A43C A50G C120A | 0.52 |

| Variant | self-cleavage |
| --- | --- |
| A64G C116U U143A | 0.22 |
| U12G U85G C145A | 0.18 |
| U13C A43U A129G | 0.69 |
| U62C U73C C123U | 0.05 |
| G10A U12C U45A A142G C146U | 1.29 |
| U1C U39C G40A U62C A64U | 0.06 |
| A6G U52A A107U G114U A141G | 1.25 |
| G35A U96A U119A | 0.05 |
| U9G U47A A78G | 0.73 |
| U81A A92G A140G | 0.03 |
| G33U U81A A94G U109C | 0.25 |
| A79G A129U A136U | 1.08 |
| A78G A94G A129U | 0.26 |
| U15C G49A G54A U108C U130C | 0.45 |
| U20A C38U A65G | 0.02 |
| U20A A42G U46C | 1.53 |
| U13C U15A U26C A121U | 1.04 |
| U12C U15C U47A | 1.59 |
| G11A A50G U52A U73C | 2.12 |
| U5C A136G G139A | 1.35 |
| U15C U102C A138G | 1.72 |
| U12G U14C U26G G83A | 0 |
| C3A U23C U130A | 0.93 |
| U14C U47C A77G U132C | 1.41 |
| A59U C133U A136G | 0.83 |

| Variant | self-cleavage |
| --- | --- |
| A24U A31U A79U A138U | 1.1 |
| U20A C51U G125U | 0.89 |
| A64G A69U U96A U132A A141G | 0.02 |
| A65G A129G A142G | 0 |
| U23C U26C A30U A42G | 1.02 |
| A31G A59G U112C | 0.77 |
| U9C A24G U39C U96C | 0 |
| A22G U81C U100C A141G | 1.84 |
| U47A A59G U115A G144A | 0.07 |
| U12C A79G U87C C103A U104A | 0.44 |
| U9C G53A U85C C101A U132C | 0.29 |
| U15A U47A A79U G125A | 1.49 |
| U5A U73C U96C | 0.4 |
| U13C C51U U85C | 0.41 |
| C110U G114C U143A | 1.86 |
| A50G U62A A65G U96A | 0.06 |
| A31G G32A G44A G74A U119C U130C | 1.5 |
| U9C U52A A57U | 0.19 |
| U52C U62C G105U A124G A141U A142G | 0.06 |
| A6G U46C A129G | 1.63 |
| A30G A42G A117G | 1.02 |
| U46A A69G U130C | 1.05 |
| A69G U96G U109C | 0 |
| G27A U52C G93A U96C | 0.05 |
| U12C U45C U81C | 2.53 |

| Variant | self-cleavage |
| --- | --- |
| C63A U102C A129G | 0.06 |
| U20G A31U U47A U62C | 0.15 |
| U102C A117U U143G | 2.2 |
| U23C U26C A65U A67U U104C | 0.42 |
| U9A U39G U45C U104A | 0 |
| U47A U112A U130C | 1.04 |
| A24G G34C A142G | 0.74 |
| A30U C63U A78G U100C A107G | 0.9 |
| A42G U52C A140G | 1.21 |
| A65U U96A A121G | 0.02 |
| A42U A64G U85C A107G A141G | 0 |
| U52C U96A U115C A121G U143C | 0 |
| U13C U115C U132A | 1.77 |
| A43G U130C A140U | 0.44 |
| A43G C61U A69G U87C A136G A138U | 0.09 |
| U9C U47C A77G A94U A141G | 1.38 |
| U12C U104C U109C | 0.57 |
| U12C G126U U130C A141G | 1.69 |
| C18U U20C U134C | 1.74 |
| U12C A57G U104A | 0.74 |
